# Measurements from PubChem BioAssay (NCATS).
# Records with an inconclusive call do not appear. Unless noted, calls come from the whole dose curve; as a rule, active = well fitted cell-killing curve with a large enough effect; inconclusive = small, poorly fitted or top-dose-only effect; inactive = no such curve, though single readings can be large or run the other way. The source holds several records for some structures; these can differ, active in one and inactive in another. Some entries of the source have several records that differ or are many. They are shown here; other results are not. An entry can have further records. Values that stand side by side are repeated measurements across runs, samples, wells, individuals or studies. Records carry a tag for their origin. The letters are not those of the source and start again with each entry.
# Tests used:
# [1] = target: Nucleoprotein (Lymphocytic choriomeningitis virus (strain Armstrong)) (UniProt P09992); experiment: qHTS for Inhibitors of the Functional Ribonucleoprotein Complex (vRNP) of Lymphocytic Choriomeningitis Arenaviruses (LCMV): LCMV Primary Screen - GLuc reporter signal (AID 1347086; calls by dose curve; note: nearly all actives have a fitted effect of over 70% in size)
# Chain of UniProt P09992 (P09992 whole entry, looked up): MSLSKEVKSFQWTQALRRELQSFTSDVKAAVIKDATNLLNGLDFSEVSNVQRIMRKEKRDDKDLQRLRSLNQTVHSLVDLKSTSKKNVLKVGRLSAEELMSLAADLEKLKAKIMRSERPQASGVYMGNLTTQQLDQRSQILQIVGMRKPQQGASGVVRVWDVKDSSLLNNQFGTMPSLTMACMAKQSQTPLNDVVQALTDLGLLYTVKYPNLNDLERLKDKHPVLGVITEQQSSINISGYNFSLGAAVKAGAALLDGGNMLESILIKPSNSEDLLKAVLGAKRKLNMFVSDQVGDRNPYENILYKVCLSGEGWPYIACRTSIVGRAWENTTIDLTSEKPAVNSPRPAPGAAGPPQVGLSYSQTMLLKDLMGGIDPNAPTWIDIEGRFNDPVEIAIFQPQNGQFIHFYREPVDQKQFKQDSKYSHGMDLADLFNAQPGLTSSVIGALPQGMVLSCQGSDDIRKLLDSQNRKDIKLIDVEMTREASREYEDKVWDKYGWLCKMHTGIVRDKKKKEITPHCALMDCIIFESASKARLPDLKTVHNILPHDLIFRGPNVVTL
# [2] = qHTS for Inhibitors of the Functional Ribonucleoprotein Complex (vRNP) of Lassa (LASV) Arenavirus: Viability assay - alamar blue signal for LASV Primary Screen (AID 1347083; calls by dose curve; tested in HEK293 reporter line; note: nearly all actives have a fitted effect of over 80% in size)
# [3] = qHTS for Inhibitors of the Functional Ribonucleoprotein Complex (vRNP) of Lymphocytic Choriomeningitis Arenaviruses (LCMV): Viability assay - alamar blue signal for LCMV Primary Screen (AID 1347085; calls by dose curve; tested in HEK293 reporter line; note: nearly all actives have a fitted effect of over 80% in size)
# [4] = qHTS of pediatric cancer cell lines to identify multiple opportunities for drug repurposing: Primary screen for SJ-GBM2 cells (AID 1347091)
# How it was run: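 Viability measured as metabolically active cells via CellTiter-Glo luminescence following 48 hours of compound exposure, 11-point dilutions in confirmatory testing. 500-1,000 cells/well plated 5 hours before dosing; controls were DMSO and 2.3 µM bortezomib.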
# [5] = qHTS of pediatric cancer cell lines to identify multiple opportunities for drug repurposing: Primary screen for NB-EBc1 cells (AID 1347095)
# [6] = qHTS of pediatric cancer cell lines to identify multiple opportunities for drug repurposing: Primary screen for Saos-2 cells (AID 1347097); note: nearly all actives have a fitted effect of over 40% in size
# How it was run: (§1)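 Following a 5-hour attachment period, cells at 500-1,000/well received compounds and were cultured for 48 hours. CellTiter-Glo was added and luminescence read to estimate viable, metabolically active cells.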
# [7] = qHTS of pediatric cancer cell lines to identify multiple opportunities for drug repurposing: Primary screen for LAN-5 cells (AID 1347100)
# How it was run: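 Viability after 48 h compound treatment at 37C, 500-1,000 cells/well, read as ATP luminescence with CellTiter-Glo. Primary screens used 11-point (MIPE, 0.78 nM-46 µM) or 8-point (NPC, 0.59 nM-46 µM) final concentrations; follow-up screens used 11-point dilutions.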
# [8] = qHTS of pediatric cancer cell lines to identify multiple opportunities for drug repurposing: Primary screen for OHS-50 cells (AID 1347103); note: nearly all actives have a fitted effect of over 40% in size
# How it was run: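 Cells (500-1,000/well) rested 5 h, then received compounds for 48 h; metabolically active cells were measured by CellTiter-Glo luminescence. Final concentrations spanned up to 46 µM (MIPE, 11-point) or 0.59 nM-46 µM (NPC, 8-point) in primary screens, 11-point in follow-ups.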
# [9] = qHTS of pediatric cancer cell lines to identify multiple opportunities for drug repurposing: Primary screen for MG 63 (6-TG R) cells (AID 1347105); note: nearly all actives have a fitted effect of over 50% in size
# How it was run: as §1
# Potency is the fitted concentration of half-maximal effect.
smiles,measurement,setting,value
CC(C)C(=O)Nc1ccc([N+](=O)[O-])c(C(F)(F)F)c1,Potency,[1],inactive [sample A] and inactive [sample B] and active: 13.7 µM [sample C]
COC(=O)C1=C(C)NC(C)=C(C(=O)OC(C)C)C1c1cccc2nonc12 (centres undefined),Potency,[2],active: 9.68 µM [sample A] and inactive [sample B]
same,Potency,[3],active: 19.3 µM [sample A] and inactive [sample B]
same,Potency,[1],active: 21.7 µM [sample A] and inactive [sample B]
CNS(=O)(=O)Cc1ccc2[nH]cc(CCN(C)C)c2c1,Potency,[3],inactive [sample A] and active: 10.9 µM [sample B]
Cn1cc(C2=C(c3cn(C4CCN(Cc5ccccn5)CC4)c4ccccc34)C(=O)NC2=O)c2ccccc21,Potency,[2],active: 19.3 µM [sample A] and inactive [sample B]
same,Potency,[3],active: 17.2 µM [sample A] and inactive [sample B]
same,Potency,[1],active: 21.7 µM [sample A] and inactive [sample B]
same,Potency,[4],active: 2.35 µM [sample A] and inactive [sample B]
same,Potency,[5],active: 662 nM [sample A] and inactive [sample B]
same,Potency,[6],active: 4.69 µM [sample A] and inactive [sample B]
same,Potency,[7],active: 2.35 µM [sample A] and inactive [sample B]
same,Potency,[8],active: 3.06 µM [sample A] and inactive [sample B]
same,Potency,[9],active: 11.8 µM [sample A] and inactive [sample B]
